The whole screen tested about 44,000 compounds, of which about 340 (0.77%) were called active. Another 5% or so got no clear call; they are omitted. Calls come from the whole dose curve; as a rule, active = well fitted inhibition curve with a large enough effect; inconclusive = small, poorly fitted or top-dose-only effect; inactive = flat fitted curve, though single readings scatter. The list shows a part of the results.
Assay: Acumen qHTS Assay for Inhibitors of the mTORC1 Signaling Pathway in MEF (Tsc2-/-, p53-/-) Cells: Sytravon;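 note: plate controls were DMSO for no effect and rapamycin for full effect; nearly all actives have a fitted effect of over 50% in size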
Settings: phospho-rpS6 immunofluorescence/PI, 24 h; series mostly up to 38.3 µM; activity change, negative = inhibition: at the top concentration
Summary of the method: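 Tsc2-/-, p53-/- mouse embryonic fibroblasts (empty-vector line) exposed to compound 24 hrs at 37 C, fixed, immunostained for phospho-rpS6 and counterstained with propidium iodide. Acumen laser scanning gives % positive cells from Alexa 488/PI ratio, thresholded using 7.5 nM rapamycin; PI count gives viability.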

Activity change, negative = inhibition, inactive:
Cc1cn2c(=O)c(S(=O)(=O)NCc3ccc(F)cc3)c(C)nc2s1 -0.834%
Cc1ccc(CNC(=O)CSCc2nc(-c3cccc(C)c3)oc2C)cc1 3.24%
O=C(CCC1N=C2c3ccccc3N=C(SCC(=O)NCCc3ccccc3)N2C1=O)NCc1ccc(F)cc1 (centres undefined) -0.955%
CCC(NC(=O)Nc1cccc(C)c1)c1c(-n2cccc2)sc2c1CCN(C)C2 (centres undefined) 0%
CCOc1ccc(OCC)c(NC(=O)C2CCCN(S(=O)(=O)c3ccc(C)cc3)C2)c1 (centres undefined) -7.04%
CCCN(CCC)C(=O)Cn1c(=O)n(-c2ccc(Cl)c(Cl)c2)c(=O)c2c(C)c(C(=O)N(C)C)sc21 -0.034%
O=C(Cn1c(=O)n(-c2ccccc2Cl)c(=O)c2sc3ccccc3c21)NC1CCCC1 3.38%
CCOc1ccc(-c2nnc(SCC(=O)N(CC)c3cccc(C)c3)o2)cc1 -3.88%
Cc1ccn2c(Nc3ccc4c(c3)OCCO4)c(-c3ccc(N(C)C)cc3)nc2c1 -5.55%
COc1ccccc1CNC(=O)CSc1cc(C)[nH]c(=O)n1 0.269%
COc1ccc(-c2c(C)nn3c(N4CCN(c5cc(Cl)ccc5C)CC4)cc(C)nc23)cc1OC -18.4%
COCCCNC(=O)C1CCN(c2nc3ccc(Cl)cc3[nH]2)CC1 -19.9%
CC1=C(c2ccc(C(C)C)cc2)S(=O)(=O)NC1=NCc1ccc(Cl)cc1 6.78%
CCc1ccc2occ(CC(=O)Nc3ccc(C)c(C)c3)c2c1 -24.6%
CCOC(=O)c1ccccc1NC(=O)c1nn(-c2ccc(OC)c(Cl)c2)c(=O)c2c1c1ccccc1n2C -9.58%
Cc1ccc(CNC(=O)CCCc2nnc3n(CC(C)C)c(=O)c4sccc4n23)cc1 -2.12%
Cc1sc2ncn(CC(=O)N3CCN(c4ccccc4)CC3)c(=O)c2c1S(=O)(=O)N1CCC(C)CC1 -0.217%
O=c1c2nncn2ccn1-c1ccc(F)c(F)c1 15.7%
O=C(c1cc2cc3ccc(Cl)cc3nc2o1)N1CCN(c2cccc(Cl)c2)CC1 -7.75%
O=C(CN1C(=O)CSc2ccc(S(=O)(=O)N3CCCC3)cc21)NCc1ccc(F)cc1Cl -1.03%
CCN(CC)C(=O)C1CCCN(c2ncnc3c2c(-c2ccccc2)cn3-c2cccc(C)c2)C1 (centres undefined) 7.12%
CCc1cccc(C)c1NC(=O)Cn1ncc2c3ccccc3n(Cc3ccccc3)c2c1=O -3.11%
COc1ccc(-c2cn3nc(SCC(=O)Nc4cc(C)cc(C)c4)ccc3n2)cc1 -9.12%
CCCSc1ncnc2c1c(-c1ccccc1)cn2-c1ccccc1OC 1.8%
COc1ccc(OC)c(NC(=O)CS(=O)(=O)Cc2nc(-c3ccc(C)cc3)oc2C)c1 -0.114%
CCOc1ccc2c(c1)c(=O)c(S(=O)(=O)c1ccc(CC)cc1)cn2Cc1cccc(Cl)c1 3.36%
Cc1ccc(Cl)cc1Nc1nn2c(=O)c3ccc(C(=O)NC4CCCCC4)cc3nc2s1 1.68%
COc1ccc(CNC(=O)c2ccc(CS(=O)(=O)c3ccc(Br)cc3)o2)cc1 -6.38%
CCCCOC(=O)c1ccc(Nc2nc3ccc(C(=O)c4ccccc4)cc3n3cnnc23)cc1 1.96%
CCOc1ccc(OCC)c(NC(=O)c2cc(-c3cccs3)nc3ccccc23)c1 1.19%
O=c1c2sccc2n(Cc2cc(=O)n3cc(Cl)ccc3n2)c(=O)n1-c1ccccc1 4.18%
O=C1CCSc2ccc(S(=O)(=O)Nc3cccc(C(F)(F)F)c3)cc2N1 0%
O=c1c(N2CCN(c3cccc(Cl)c3)CC2)csc2ccc(Cl)cc12 -4.06%
CCOC(=O)c1[nH]c(C)c(CCC(=O)Nc2cc(Cl)c(OC)cc2OC)c1C 0%
CCC(C)NC(=O)c1cn(CC)c2ccc(S(=O)(=O)N3CCc4ccccc4C3)cc2c1=O (centres undefined) 0.657%
Cc1ccc(CCNC(=O)c2ccc3c(c2)N(Cc2ccc(F)cc2)CCS3)cc1 1.86%
O=C(NC1CCCCCC1)c1ccc(CS(=O)c2cccc(Cl)c2)o1 (centres undefined) -4.22%
O=C(CSc1nc2ccccc2n1Cc1cccc(F)c1)N1CCN(c2ccc(F)cc2)CC1 0.942%
Cc1cc(C)c(NC(=O)Cn2c(=O)n(CC(=O)NCCc3ccccc3)c(=O)c3ccccc32)c(C)c1 9.97%
Cc1nc(-c2ccc(C)c(S(=O)(=O)N3CCC(C(=O)NCc4ccc(F)cc4)CC3)c2)no1 -5.98%
Cc1cc(N2CCC(C)CC2)nc2ccc(NC(=O)CCC(=O)N3CCN(c4ccccc4F)CC3)cc12 -27.8%
O=S(=O)(c1ccc2nc(Nc3ccc(F)cc3)ccc2c1)N1CCCC1 0%
Cc1ccc(C)c(CNC(=O)CN2C(=O)CSc3ccc(S(=O)(=O)N(C)C)cc32)c1 -13.2%
COc1ccccc1N1CCN(S(=O)(=O)CCNC(=O)C(c2ccccc2)c2ccccc2)CC1 -1.87%
COc1ccc(S(=O)(=O)N(CCc2ccccc2)CC(=O)Nc2cc(C)cc(C)c2)cc1OC 1.3%
CCc1ccc(NC(=O)Cn2c(=O)n(CCc3ccccc3)c(=O)c3sc4ccccc4c32)cc1 2.52%
CC(=O)c1cccc(N2C(=O)CN(S(C)(=O)=O)CC2(C)C(=O)NC2CCCC2)c1 (centres undefined) -15.2%
CCc1ccc(NC(=O)c2sc3nc(C)cc(C)c3c2NC(=O)c2ccccc2OC)cc1 1.77%
CCN(Cc1ccccc1)C(=O)CCS(=O)(=O)c1ccc2c(c1)CCN2C(C)=O 0.608%
O=C(NC1CCCCC1)c1ccc2c(c1)N(Cc1cccc(Cl)c1)C(=O)c1ccccc1S2=O (centres undefined) -0.0683%
CCc1ccc(-c2nc(CSCC(=O)NCc3ccc(C)cc3)c(C)o2)cc1 0.545%
COc1ccc(CN2CCN(S(=O)(=O)c3ccc(NC(C)=O)cc3)CC2)c(OC)c1OC -2.48%
CC(=O)c1cc2c(cc1N/C(=N/S(=O)(=O)c1ccc(F)cc1)c1ccccc1)OCO2 0.138%
O=C(Cn1ncc2c3ccccc3n(Cc3cccc(Cl)c3)c2c1=O)N1CCCCCC1 0.154%
O=C(NCc1ccco1)c1ccc2c(c1)N(Cc1cccc(Cl)c1)C(=O)c1ccccc1S2=O (centres undefined) -7.19%
CCOc1ccc(CCNC(=O)Cn2c(C)c3cnn(-c4ccccc4)c(=O)c3c2C)cc1 0.295%
COc1cc(OC)c(NC(=O)CSc2cc(=O)n(C)c3ccc(Cl)cc23)cc1Cl -19.6%
CCc1ccc(NC(=O)CC2C(=O)N(c3ccc(Cl)cc3)C(=O)N2C2CCCC2)cc1 (centres undefined) -13.9%
CCc1c(CN2CCN(c3cccc(C)c3)C(C)C2)csc1C (centres undefined) -6.51%
Cc1cccc(OCCn2c(-c3ccc(Cl)cc3)nc3ccccc3c2=O)c1C 3.64%
CC(=O)c1cccc(Nc2nc(-c3ccccc3Cl)nc3ccccc23)c1 15.4%
Cc1ccccc1Cn1c2ccccc2c2cnn(CC(=O)NCCc3ccc(Cl)cc3)c(=O)c21 -5.9%
CC(CCCc1ccccc1)NC(=O)c1nn(-c2ccc(Cl)cc2)nc1CO (centres undefined) 5.46%
CC(C)c1cccc(C(C)C)c1NS(=O)(=O)c1cccs1 -24.4%
Cc1ccc2[nH]c3c(=O)n(CC(=O)N4CCCC(C)C4)ncc3c2c1 (centres undefined) 3.52%
O=C(NC1CC(=O)N(c2ccccc2)C1)c1ccc(S(=O)(=O)N2CCCC2)cc1 (centres undefined) -2.98%
Nc1ncc(S(=O)(=O)NCc2ccc(F)cc2)cn1 -8.96%
COc1ccc(CNC(=O)C2CCN(S(=O)(=O)c3ccc4c(ccn4C)c3)CC2)cc1 -0.745%
CCOC(=O)c1c(C)[nH]c(C)c1S(=O)(=O)NCC(=O)N1CCN(c2ccccc2F)CC1 -2.98%
COc1ccc(C(=O)CCC(=O)Nc2cc(C)ccc2C)cc1 -11.2%
Cc1cccc2sc(N(Cc3cccnc3)C(=O)COc3ccccc3)nc12 -1.17%
CCOc1ccccc1NC(=O)c1cc2c(=O)[nH]c3ccccc3c2s1 -11.4%
Cc1noc2ncnc(N3CCCC(C(=O)Nc4cccc(C(F)(F)F)c4)C3)c12 (centres undefined) 4.76%
CCc1ccc(NC(=O)c2ccc(F)c(S(=O)(=O)N3CCN(c4cc(C)ccc4C)CC3)c2)cc1 3.99%
CC(C)c1ccc(NC(=O)Cn2c(=O)oc3cc(S(=O)(=O)N4CCCC4)ccc32)cc1 0.428%
CCc1c(C)c(C#N)c2nc3ccccc3n2c1Nc1cccc(C(F)(F)F)c1 -21.2%
COc1ccc(-c2nc(S(=O)(=O)c3ccc(C)cc3)c(NCc3ccccc3)o2)cc1 -7.41%
Cn1cc(-c2cc3n(n2)CCC(=O)N3CCCC(=O)Nc2ccccc2F)c2ccccc21 -4.78%
CCc1cccc(NC(=O)C(CC)n2nc(C)c3sc4ccccc4c3c2=O)c1 (centres undefined) 3.21%
Cc1c(C(=O)NCc2ccccc2Br)oc2ccc3c(c12)C(=O)CC(C)(C)O3 0.879%
COc1ccc(NC(=O)c2sc3nc4c(cc3c2N)CN(Cc2ccccc2)CC4)cc1OC -7.32%
CC(C)c1ccc(NC(=O)C(Cc2ccccc2)NS(=O)(=O)c2ccc3c(c2)oc(=O)n3C)cc1 (centres undefined) -27.2%
Cc1noc(-c2ccc(-c3noc(-c4ccc(C(F)(F)F)cc4)n3)cc2)n1 -12%
O=C(NCCCN1CCN(c2ccc(F)cc2)CC1)c1ccc2nc(CCc3ccccc3)oc2c1 1.75%
COc1ccc(Nc2nc(-c3ccccc3F)nc3ccccc23)cc1OC 4.53%
CCOc1ccc(CC(=O)NCc2ccc3c(c2)CCN3C(C)=O)cc1OCC -0.0786%
CN(C)CCNC(=O)Cn1nc(N2CCN(c3ccccc3)CC2)ccc1=O 10.2%
COc1ccc(NC(=O)CCc2nnc3n(CC(C)C)c(=O)c4ccccc4n23)cc1OC -1.61%
CC(C)(C)OC(=O)N1CCC(c2c(C(=O)N3CCN(c4ncccn4)CC3)cnn2-c2cccc(F)c2)CC1 1.12%
Cc1ccc(O)c(NC(=O)COCc2cc(-c3ccco3)on2)c1 0.594%
COc1ccc(OC)c(NC(=O)Cn2cc(C(=O)c3ccc(Cl)cc3)c(=O)c3cc(OC)ccc32)c1 -11.6%
CC(=O)Nc1nonc1-c1nnc(SCc2ccccc2Cl)n1C 1.23%
COc1ccc(-c2cc(C(=O)Oc3cccc(C)c3C)c3ccccc3n2)cc1 8.3%
COc1ccc(NC(=O)c2ccc3c(c2)CCN3S(=O)(=O)c2ccccc2)cc1 0.814%
